In publication PMC4336329 (PLoS ONE, 2015):
In all, about 310,000 compounds went through this assay and about 14,000 (4.5%) showed an effect of 50% or more. The effect is printed as a negative number. The list shows a part of the results.

What follows are compounds tested against human ether-à-go-go-related gene (hERG) potassium channel (human, UniProt Q12809) (assay: primary screen, population patch clamp on CHO cells stably expressing hERG).
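Note: peak tail current of the secondary pulse compared with the same well before compound.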

Chain of human ether-à-go-go-related gene (hERG) potassium channel (Q12809 whole entry, looked up): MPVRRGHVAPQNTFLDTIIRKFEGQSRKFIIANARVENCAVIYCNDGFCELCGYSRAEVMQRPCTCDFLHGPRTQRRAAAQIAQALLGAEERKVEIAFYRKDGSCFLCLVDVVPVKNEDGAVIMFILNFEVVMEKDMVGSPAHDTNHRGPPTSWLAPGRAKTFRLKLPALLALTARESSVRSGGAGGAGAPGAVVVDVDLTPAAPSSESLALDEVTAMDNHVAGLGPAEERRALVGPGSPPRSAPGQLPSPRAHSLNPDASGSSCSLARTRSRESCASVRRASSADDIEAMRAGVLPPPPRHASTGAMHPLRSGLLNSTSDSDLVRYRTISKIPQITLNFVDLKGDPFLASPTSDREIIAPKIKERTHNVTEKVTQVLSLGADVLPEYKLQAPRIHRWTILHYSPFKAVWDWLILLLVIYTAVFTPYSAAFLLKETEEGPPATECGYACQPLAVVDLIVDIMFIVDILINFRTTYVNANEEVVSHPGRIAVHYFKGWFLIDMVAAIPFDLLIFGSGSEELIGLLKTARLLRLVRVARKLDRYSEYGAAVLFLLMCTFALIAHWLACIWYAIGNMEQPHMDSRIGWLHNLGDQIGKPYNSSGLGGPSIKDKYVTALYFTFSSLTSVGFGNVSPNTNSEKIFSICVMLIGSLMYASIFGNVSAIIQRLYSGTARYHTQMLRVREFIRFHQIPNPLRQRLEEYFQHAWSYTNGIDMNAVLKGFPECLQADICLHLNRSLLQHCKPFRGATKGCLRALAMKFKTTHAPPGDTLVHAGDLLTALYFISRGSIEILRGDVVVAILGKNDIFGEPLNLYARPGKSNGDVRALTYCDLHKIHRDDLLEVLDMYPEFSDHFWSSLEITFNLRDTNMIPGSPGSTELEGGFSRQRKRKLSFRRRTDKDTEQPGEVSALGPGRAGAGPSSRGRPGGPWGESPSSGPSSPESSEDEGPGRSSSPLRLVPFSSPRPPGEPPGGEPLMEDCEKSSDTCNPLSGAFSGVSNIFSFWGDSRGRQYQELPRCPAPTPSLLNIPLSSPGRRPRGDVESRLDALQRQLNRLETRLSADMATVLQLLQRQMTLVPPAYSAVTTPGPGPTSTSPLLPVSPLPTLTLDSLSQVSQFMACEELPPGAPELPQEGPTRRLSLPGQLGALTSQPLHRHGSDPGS

Structure (SMILES)	hERG current change (%, negative = inhibition) at 10uM [%]
COc1ccc(/C=N/NC(=O)c2ccncc2)cc1CSc1nc2ccccc2s1	16.3
Cc1[nH]n(-c2ccccc2)c(=O)c1C(=O)c1ccc(Cl)cc1	14.8
C[C@]12CC[C@H](O)C[C@H]1CC[C@@H]1C2CC[C@]2(C)[C@@H](C3=CC(=O)OC3)[C@@H](O)C[C@]12O (stereo partly shown)	21.1
CC(=O)Cc1nsc(NC(=O)c2cc(-c3ccc(Cl)c(Cl)c3)oc2C)n1	10.7
Cc1nc2c(sc(=S)n2Cc2ccco2)c(=O)n1CC(=O)Nc1ccccc1Cl	5.07
CC(=O)NC(Cc1ccccc1)C(=O)OCC(=O)c1ccccc1 (stereo not shown)	3.64
O=C(NC1CC1)C1=C[C@@H](c2ccccc2)C[C@@H](OCc2ccc(CO)cc2)O1	-38.3
CC1=C(C#N)C(c2ccc(O)cc2)C(C#N)=C(C)N1	13
Cc1cc(NC(=O)CSc2nnc(-c3ccco3)n2C)no1	0.163
O=S(=O)(Nc1c(F)cccc1F)c1ccc(Cl)nc1	50.8
CCOC(=O)Cc1nnc(Nc2cc(C)ccc2C)c2ccccc12	-19.1
COc1ccc(CNc2nc3c(c(=O)n(Cc4ccc(Cl)cc4)c(=O)n3C)n2C)cc1	11
O=C(Cc1ccccc1)NN1C(=O)/C(=C/c2ccccc2C(=O)O)SC1=S	12.4
COc1cc(C2C(C(=O)c3ccco3)=C(O)C(=O)N2CC2CCCO2)ccc1O (stereo not shown)	2.25
CC(C)[C@H](NC(=O)c1ccccc1)C(=O)OCC(=O)NCCc1ccc(F)cc1	-10.9
Nc1nc(-c2ccc(Br)cc2)cc(C(F)(F)F)n1	11.4
CC(C)C(OC(=O)c1nsc(Cl)c1Cl)C(=O)NC(C)(C)C (stereo not shown)	13.3
CCn1nnnc1SCC(=O)Nc1nnc(C(C)C)s1	13.7
O=C(COc1ccc2c3c(c(=O)oc2c1)CCCC3)NCc1cccnc1	-0.966
c1ccc(-c2csc(-c3cccnc3)n2)cc1	-6.12
Clc1ccccc1Nc1nc(-c2ccncc2)nc2ccccc12	7.5
COc1ccc(Cn2ccnc2SCC(=O)NC2CCCCC2)cc1	-2.96

Structure (SMILES)	hERG current change (%, negative = inhibition) at 10uM [%]
CC1(C)N=C(C(=O)c2ccccc2)N(O)C1(C)O (stereo not shown)	0.936
Cc1[nH]c(=O)[nH]c(=O)c1N(C)C	5.74
COc1ccc(CN2CC(C(=O)NCC3CCCO3)CC2=O)cc1 (stereo not shown)	-7.61
C/C(CC(=O)Nc1cc(C)ccn1)=N\NC(=O)c1ccc(C)cc1	-15.4
COc1cc(/C=C/CO)cc(OC)c1OC/C=C(\C)CCC=C(C)C	1.34
COc1cc(OC)c2c(-c3ccccc3)cc(=O)oc2c1C(CCN1CCN(c2ccccc2)CC1)c1ccc(N(C)C)cc1 (stereo not shown)	7.89
CCCCOC(=O)n1c(=O)oc2ccc(S(=O)(=O)N3CCCCC3)cc21	-1.64
Clc1ccccc1-c1nc2ccccc2c2nc3ccccc3n12	-13.7
O=C(NC1CCCC1)C(c1cccnc1)N(Cc1ccccc1F)C(=O)c1csnn1 (stereo not shown)	-15.6
CCCC(=O)N(c1ccc2oc(=O)sc2c1)S(=O)(=O)c1ccccc1	8.84
CCOc1ccc(C(=O)N[C@H](C(=O)Nc2ccccc2OC)C(C)C)cc1	-28.7
Cc1cc(=O)[nH]c(SCCOc2cccc(C(F)(F)F)c2)n1	12.1
FC(F)(F)c1ccc(-n2cn[nH]c2=S)cc1	18.7
Cc1cccc(CN2CCN(C(c3ccccc3)c3ccc(Cl)cc3)CC2)c1.Cl (stereo not shown)	18.5
O=C(NCCC1CC1(Cl)Cl)c1ccc([N+](=O)[O-])cc1 (stereo not shown)	-19
CCN(CC(=O)NC1CCS(=O)(=O)C1)S(=O)(=O)c1cc(Br)ccc1Br (stereo not shown)	-13.7
O=C(N/N=C/c1ccoc1)c1ccccc1O	9.69
O=C(c1ccc2ccccc2c1)C1CCCN(C(=O)c2cccnc2)C1 (stereo not shown)	-8.48
Cc1ccc(S(=O)(=O)N(C)C)cc1NC(=O)c1c(-c2c(F)cccc2Cl)noc1C	-4.27
Cc1c(C(=O)NCc2ccc3c(c2)OCO3)sc2nc(-c3ccc(F)cc3)cn12	12.1
Nc1nc(SCC(=O)Nc2ccccc2Oc2ccccc2)n[nH]1	4.67
Cc1ccc(S(=O)(=O)N(C)C)cc1NC(=O)C1Cc2ccccc2CN1C(=O)c1ccco1 (stereo not shown)	-9.91

Structure (SMILES)	hERG current change (%, negative = inhibition) at 10uM [%]
CCN(CC)CCCNC(=O)CCc1ccccc1	-13.3
CC(C)=CC(=O)NCCc1ccccc1	-5.36
Cc1nc2ccccc2cc1C(=O)O	22.8
COc1ccc(CCNc2oc(-c3ccc(OC)c(OC)c3)nc2P(=O)(OC)OC)cc1OC	-22
CN(C)N1C(N)=C(C#N)C(c2ccccc2)C2=C1CCCC2=O (stereo not shown)	5.36
O=C(CCN1C(=O)/C(=C/c2cccs2)SC1=S)Nc1ccccc1O	13.7
Cn1c(=O)[nH]c(=O)c2c1nc(N1CCCCC1)n2CCCSc1nnnn1-c1ccccc1	-48.7
C=COCCNC(=O)Nc1ccc(Cl)c(Cl)c1	9.59
CCc1nnc(NC(=O)CSc2nc3[nH]ncc3c(=O)[nH]2)s1	21.9
C=CCNCc1ccccc1[N+](=O)[O-]	22.2
CC(=O)c1cccc(NS(=O)(=O)c2c(C(=O)N3CCOCC3)c(C)n(C)c2C)c1	5.2
Cc1cc(O)c(-c2cc(C(=O)Nc3sc4c(c3C(=O)NCc3ccco3)CCC4)[nH]n2)cc1C	33.2
COc1cccc(NC(=O)/C=C/c2ccco2)c1	-2.58
Cc1nc2sc(C(c3ccccc3)N3CCC(O)CC3)c(O)n2n1 (stereo not shown)	-0.814
CCOc1cc(Cl)c(S(=O)(=O)NCCCn2ccnc2)cc1Cl	-48.9
O=C(NCc1ccc(Cl)cc1)C1CCN(S(=O)(=O)N2CCOCC2)CC1	-28.5
COc1cc(/C=N/Nc2nn3cnnc3c3ccccc23)ccc1O	18.2
COc1ccc(/C=N/Nc2nc(N3CCCC3)nc(N3CCCC3)n2)c(OC)c1OC	-10.9
COc1ccc(C(CNC(=O)c2cccc(N(C)C)c2)N2CCCC2)cc1 (stereo not shown)	-28.3
CCOC(=O)C(CCCCOc1cccc(CC)c1)C(=O)OCC	16.5
CC1CC1C(=O)OCC(=O)Nc1cccc(S(=O)(=O)NC2=NCCCCC2)c1 (stereo not shown)	-7.64
Cc1cc(C)n(-c2nc(N(c3ccccc3)c3ccccc3)nc(-n3nc(C)cc3C)n2)n1	11.9

Structure (SMILES)	hERG current change (%, negative = inhibition) at 10uM [%]
CN(CC(=O)Nc1sccc1C#N)Cc1ccccc1	8.25
COc1cccc(NC(=O)CNC(=O)c2ccccc2)c1	4.4
Cn1nc(-c2ccccc2)c(N2CCCCC2)cc1=O	-2.07
O=C(COC(=O)c1ccc(Cl)nc1)NC(=O)c1ccc(OC(F)F)cc1	-28
O=C(CSCc1ccccc1)N1CCN(Cc2ccc3c(c2)OCO3)CC1	-22
COc1cc(CN2CCC(C(=O)N3CCCC(C)C3)CC2)cc(OC)c1O.O=C(O)C(=O)O (stereo not shown)	3.64
CC1CCN(CCCNC(=O)CN2C(=O)CSc3ccc(S(=O)(=O)N4CCC(C)CC4)cc32)CC1	-54.5
CC1(C)CN=C(NCc2ccccc2Cl)S1	-16.6
O=C(COC(=O)CNC(=O)c1ccc(Cl)c([N+](=O)[O-])c1)NNC(=O)c1cccs1	25.1
Cc1onc(-c2ccccc2Cl)c1C(=O)NCc1ccccc1	12
Cc1ccc(/C=N/NC(=O)CNC(=O)c2ccc(C)c([N+](=O)[O-])c2)o1	-18.4
COC(=O)c1cc(C#N)c(NCc2ccccc2)nc1C	-14.7
CCCCCCC#Cc1cncc(C(=O)NNC(=O)Nc2cc(Cl)cc(Cl)c2)c1	15.5
NC(=O)c1ccc(NC(=O)COC(=O)CC(NC(=O)c2ccccc2Cl)c2ccccc2)cc1 (stereo not shown)	-1.35
O=C(NNS(=O)(=O)c1ccc(Cl)cc1)NC1CCCCC1	3.44
O=C(/C=C/c1ccc(F)cc1)OCC(=O)c1ccc[nH]1	-6.2
O=C(Nc1ccc(Cl)cc1)Nc1ccc(C(=O)N2CCOCC2)cc1	-3.06
CCc1nc(SCC(=O)Nc2ccccc2)c2c(=O)n(C)c(=O)n(C)c2n1	11.7
O=C(COc1ccccc1)Nc1ccc(S(=O)(=O)NCc2ccco2)cc1	-17.3
Cc1ccc(NC(=O)COC(=O)c2ccc(CN3CCCC3=O)cc2)c(Cl)c1	50.2
Cc1cc(C)cc(NC(=O)c2cc(=O)c3ccccc3o2)c1	8.7
CCOC(=O)c1ccc(N2C(=O)c3n[nH]c(-c4ccco4)c3C2c2ccc([N+](=O)[O-])cc2)cc1 (stereo not shown)	-8.12
